# Data published in PMC4336329 (PLoS ONE, 2015).
# About 14,000 (4.5%) of roughly 310,000 compounds showed an effect of 50% or more. Effects have a minus sign here. The list shows a part of the results.
# Biological target: human ether-à-go-go-related gene (hERG) potassium channel (human, UniProt Q12809)
# Assay: primary screen, population patch clamp on CHO cells stably expressing hERG
# 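Also: peak tail current of the secondary pulse compared with the same well before compound.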
# human ether-à-go-go-related gene (hERG) potassium channel, sequence (Q12809 whole entry, looked up): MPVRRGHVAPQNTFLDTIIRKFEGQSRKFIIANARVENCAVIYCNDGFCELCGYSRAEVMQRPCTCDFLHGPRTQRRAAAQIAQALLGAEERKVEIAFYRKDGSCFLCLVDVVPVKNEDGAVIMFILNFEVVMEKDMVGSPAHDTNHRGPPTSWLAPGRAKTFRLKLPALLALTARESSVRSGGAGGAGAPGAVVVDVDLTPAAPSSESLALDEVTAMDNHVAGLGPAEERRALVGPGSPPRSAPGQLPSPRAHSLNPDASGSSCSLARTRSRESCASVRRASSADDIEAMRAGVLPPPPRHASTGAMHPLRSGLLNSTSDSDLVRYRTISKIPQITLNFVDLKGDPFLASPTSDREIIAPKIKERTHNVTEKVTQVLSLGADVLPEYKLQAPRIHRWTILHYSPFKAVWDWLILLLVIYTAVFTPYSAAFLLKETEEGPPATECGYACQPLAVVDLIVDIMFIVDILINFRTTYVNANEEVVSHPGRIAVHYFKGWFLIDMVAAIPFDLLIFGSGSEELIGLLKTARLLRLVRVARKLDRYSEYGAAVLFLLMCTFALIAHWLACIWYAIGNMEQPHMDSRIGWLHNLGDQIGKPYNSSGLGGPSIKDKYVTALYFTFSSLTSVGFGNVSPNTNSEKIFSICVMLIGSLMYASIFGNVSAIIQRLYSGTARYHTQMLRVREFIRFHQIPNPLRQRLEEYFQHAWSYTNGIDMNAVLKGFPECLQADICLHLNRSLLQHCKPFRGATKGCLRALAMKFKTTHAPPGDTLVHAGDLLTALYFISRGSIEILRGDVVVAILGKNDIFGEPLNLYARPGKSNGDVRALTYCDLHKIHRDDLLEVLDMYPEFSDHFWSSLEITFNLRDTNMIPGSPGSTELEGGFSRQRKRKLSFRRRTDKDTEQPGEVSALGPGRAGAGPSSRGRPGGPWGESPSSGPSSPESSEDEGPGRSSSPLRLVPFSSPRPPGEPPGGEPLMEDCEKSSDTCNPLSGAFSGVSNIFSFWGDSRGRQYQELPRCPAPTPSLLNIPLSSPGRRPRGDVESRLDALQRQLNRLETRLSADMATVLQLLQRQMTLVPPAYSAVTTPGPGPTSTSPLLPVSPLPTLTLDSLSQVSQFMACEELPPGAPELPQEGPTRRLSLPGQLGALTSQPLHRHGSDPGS
row,SMILES,"hERG current change (%, negative = inhibition) at 10uM"
1,O=C(CSc1nnc(-c2ccncc2)n1Cc1ccco1)c1ccc(Cl)cc1,-46%
2,Nn1c(SCc2cccc(C(F)(F)F)c2)nnc1-c1ccco1,-11.7%
3,Cc1ccc2c(C)c(C(=O)N(Cc3ccncc3)CC3CCCO3)oc2c1C (stereo not shown),-51.9%
4,CCOC(=O)c1ccc(NC(=O)CN2CCN(C(=O)c3ccco3)CC2)cc1,-49.4%
5,Cl.Fc1ccccc1CNCCC(Cc1ccccc1)c1ccc2c(c1)OCO2 (stereo not shown),-50.6%
6,Cc1cccc(CSc2nncc(=O)[nH]2)c1,15%
7,COc1cc2ccccc2cc1C(=O)NC(=S)Nc1nnn(C)n1,18.7%
8,O=C(N/N=C/C=C/c1ccco1)c1cccs1,0.56%
9,COC(=O)c1[nH]c2cc(OC)ccc2c1NC(=O)CCN1CCN(c2ccccc2)CC1,-67%
10,CC(=O)Oc1ccc(N2C(=O)C3C4C=CC(CC4)C3C2=O)cc1[N+](=O)[O-] (stereo not shown),8.49%
11,CCN(CC)S(=O)(=O)c1cc(C(=O)OCC(=O)Nc2cccc(Br)c2)ccc1F,13.2%
12,COCCn1c(=S)[nH]c2cc(C(=O)N3CCN(Cc4ccc5c(c4)OCO5)CC3)ccc2c1=O,-3.68%
13,CN1CCN(CC(=O)NC2CCCCC2)CC1.Cl,18%
14,C=CCNC(=O)N1CCCC(C(=O)c2cccc(Cl)c2)C1 (stereo not shown),-13%
15,COc1ccc(C(=O)Nc2ccc(S(=O)(=O)NC(C)C)cc2)cc1,-7.14%
16,CN1CCN(Cc2cc(=O)oc3ccc(Cl)cc23)CC1,-16.7%
17,Cc1cc(C)c(-n2c(SCC(=O)N3CCOCC3)n[nH]c2=O)c(C)c1,19.8%
18,CN(C)C(CNC(=O)CCNC(=O)c1ccc(Cl)cc1)c1ccco1 (stereo not shown),-6.99%
19,N#Cc1c(/N=C/C=C/c2ccccc2)sc2c1CCCC2,-0.27%
20,COc1c(F)cc2[nH]c3c(c2c1F)CCNC3=O,7.3%
21,Cc1ccc(NC(=O)c2ccccc2NC(=O)Cc2ccccc2)cc1,3.19%
22,O=C(Cn1ccc2ccccc2c1=O)N1CCN(Cc2ccc3c(c2)OCO3)CC1,-14.8%

row,SMILES,"hERG current change (%, negative = inhibition) at 10uM"
1,Cc1cc(C(=O)NNC(=O)c2ccc(NC(=O)CC#N)cc2)c(C)o1,11.8%
2,Cc1ccc(C(=O)NC(=C(Cl)Cl)S(=O)(=O)c2ccc(Cl)cc2)cc1,27.1%
3,COc1nccnc1NS(=O)(=O)c1ccc(NC(=S)NC(=O)c2ccccc2F)cc1,-3.47%
4,COc1cccc(/C=N\n2c(C)nnc2C)c1OC,3.6%
5,NC(=O)CC(NC(=O)Cc1cccc2ccccc12)c1ccc(NCc2ccc(F)cc2)c([N+](=O)[O-])c1 (stereo not shown),-1.55%
6,Cc1ccc(NC(=O)COc2ncnc3ccccc23)cc1S(=O)(=O)N1CCOCC1,-1.45%
7,Cc1nc(N2C(=O)C(=O)/C(=C(/O)c3ccccc3)C2c2ccco2)sc1C (stereo not shown),-6.12%
8,COc1cccc(-c2nc(CS(=O)(=O)CC(=O)NC3CCCC3)c(C)o2)c1,3.06%
9,Cc1cccc(N2CCN(C(=O)c3ccc(N4CCCC4=O)cc3)CC2)c1C,-43.3%
10,CCOC(=O)c1c(C)n(C)c2ccc(OCC(O)Cn3nc(C)cc3C)cc12 (stereo not shown),3.2%
11,O=C(Nc1cccnc1)/C(N=Nc1cccnc1)=C(\O)c1ccccc1,-53%
12,COc1ccc(-c2c(C)nc3c(-c4ccccn4)cnn3c2N)cc1,12.5%
13,CCn1c(CNC(=O)c2ccccc2F)cc2ccccc21,9.02%
14,COc1ccc(CN2CCC(n3nccc3NC(=O)CCOc3ccccc3)CC2)cc1C,-68.7%
15,O=C(c1ccccc1)n1c(=O)c(F)cn(COCCBr)c1=O,17.5%
16,O=C(O)c1cc(-c2c[nH]c3ccccc23)nc2ccc3ccccc3c12,2.25%
17,Oc1ccc(O)cc1,10.8%
18,O=C(O)CC1(Cc2nc(-c3cccs3)no2)CCCC1,6.17%
19,CSc1cccc(NC(=O)CN2C(=O)COc3ccc(S(=O)(=O)N4CCOCC4)cc32)c1,2.13%
20,COC(=O)C1=C(C(=O)OC)SC2(S1)C(C(=O)OC)=C(C(=O)OC)SC1=C2c2cc(C)cc(C)c2NC1(C)C,26.1%
21,O=C(CCN1CCCC1=O)NC1CCCc2c1cnn2-c1ccc(F)cc1F (stereo not shown),-2.54%
22,CC/C(=N\NC(=O)c1ccncc1)C12CC3CC(CC(C3)C1)C2,8%

row,SMILES,"hERG current change (%, negative = inhibition) at 10uM"
1,CC(Sc1nnc(-c2ccc(Cl)cc2Cl)n1Cc1ccccc1)C(=O)Nc1nccs1 (stereo not shown),-16%
2,CCOC(=O)CSc1nc2ccccc2c(=O)n1-c1ccc(C)cn1,0.327%
3,CN(C)C(Cc1ccccc1)C(=O)c1ccccc1.Cl (stereo not shown),-0.684%
4,COc1cccc(OCc2cc(C(=O)N3CCN(C(C)=O)CC3)no2)c1,-1.97%
5,Cc1ccc(NC(=O)C2CCCC2)c(Br)c1,23.3%
6,N#Cc1c(-c2c(Cl)cccc2Cl)noc1/C=C/Nc1ccc(C(=O)O)cc1,-27.1%
7,Cc1noc(C)c1S(=O)(=O)Nc1ccc(C(=O)Nc2ccc(OC(F)(F)F)cc2)cc1,0.557%
8,Clc1ccc(Cl)c(Oc2ccc(Oc3nc(Cl)ccc3Cl)cc2)n1,25.5%
9,O=C(O)CCc1nc(-c2ccccc2)no1,20.9%
10,CCCCCCC1CCC(C(=O)NC(CCSC)C(=O)NC(C(=O)OC)C(C)C)CC1 (stereo not shown),6.46%
11,CCn1c(SC)nnc1-c1ccc(S(=O)(=O)N2CCCCC2)cc1,-12.1%
12,COc1ccc(Oc2coc3cc(OC(=O)N4CCOCC4)ccc3c2=O)cc1,-25.3%
13,CCc1ccc(NC(=O)N(Cc2cccnc2)Cc2ccco2)cc1,-53.1%
14,CCN1CCN(Cc2c(O)ccc3c2O/C(=C\C=C\c2ccccc2OC)C3=O)CC1,-34.9%
15,CCOc1ccc(CCNC(=O)COC(=O)COc2ccc(C(=O)CC)cc2)cc1OCC,14.4%
16,CC(/C=C/c1ccccc1)=N/NC(=O)c1cccc(Br)c1,-10.1%
17,COc1cc(C(=O)N[C@@H](C)C(=O)NCc2ccco2)cc(OC)c1OC,21.6%
18,Cc1ccc(OCC(=O)NC(C)c2ccccc2)c([N+](=O)[O-])n1 (stereo not shown),-4.79%
19,COCC(=O)N1CCC(Oc2ccc(C(=O)NCCCn3cccn3)cc2)CC1,11.9%
20,COCCn1c(SCC(=O)Nc2ccc3[nH]c(=O)[nH]c3c2)nc2ccccc2c1=O,2.22%
21,C=C1C(C(=O)Nc2ccccc2)C1C(=O)Nc1ccccc1 (stereo not shown),-27.3%
22,CN(C)S(=O)(=O)c1cccc(NC(=O)COC(=O)CNC(=O)c2ccccc2F)c1,-16.5%

row,SMILES,"hERG current change (%, negative = inhibition) at 10uM"
1,CC(Oc1cccc(Cl)c1)C(=O)Nc1ccc(S(=O)(=O)NC2=NCCCCC2)cc1 (stereo not shown),-22.5%
2,NC(=O)CCn1cnc2ccccc21,6.28%
3,O=C(NCc1cccs1)C(Cc1ccccc1)n1cccc1 (stereo not shown),-13.1%
4,COc1ccccc1C(=O)NNC(=O)c1cccc([N+](=O)[O-])c1,-13.3%
5,CC(NC(=O)Cc1ccsc1)c1ccc(Cl)cc1Cl (stereo not shown),19.1%
6,CC(=O)C1=C(O)C(=O)N(CCCO)C1c1ccccc1 (stereo not shown),6.08%
7,Cc1[nH]c(C)c2c(=O)n(-c3ccccc3)ncc12,10.2%
8,Cc1ccc(NC(=S)NC(NC(=O)N(C)C)C(Cl)(Cl)Cl)cc1 (stereo not shown),7.17%
9,COc1ccc(CN(C)C(=O)COC(=O)c2c(C)nn(-c3ccc(F)cc3)c2Cl)cc1,-71.1%
10,O=S(=O)(Nc1ccc(Cl)cn1)c1ccc2c(c1)OCCO2,2.39%
11,COc1cccc(NC(=O)c2nnn(CCc3ccccc3)c2N)c1,-10.7%
12,COc1ccc(Nc2cc(C)nc3nc(C)nn23)cc1Cl,-55.5%
13,O=C(COc1ccc([N+](=O)[O-])cc1)Nc1cccc(C(=O)Nc2ccccc2C(=O)O)c1,1.98%
14,COc1ccccc1-c1noc(-c2ccccc2)n1,20.9%
15,COc1ccc(CC(=O)Nc2nnc(SCC(=O)NCc3ccco3)s2)cc1OC,3.21%
16,FC(F)(F)c1nc(-c2ccccc2)ncc1-c1nnnn1-c1ccccc1,13.2%
17,O=C(N/N=C/c1ccc([N+](=O)[O-])cc1)c1cc(-c2ccc3c(c2)OCO3)n[nH]1,6.47%
18,COc1ccccc1OCCNC(=O)C1CC(=O)N(Cc2ccc(C)cc2)C1 (stereo not shown),-3.37%
19,CC(=O)N1CCSc2ccc(S(=O)(=O)NCCc3ccc(C)cc3)cc21,-0.864%
20,CN(C)c1nc(N(C)C)nc(N(C)C)n1,28%
21,COC(=O)CC(N)c1ccc(Br)cc1.Cl (stereo not shown),17.2%
22,CC1=NN(C(N)=S)C(=O)C1N=Nc1ccc(Cl)cc1Cl (stereo not shown),8.32%
